# According to PubChem BioAssay AID488969 (Vanderbilt High Throughput Screening Facility, 2010):
# Over roughly 110,000 compounds, “z-score” has its median near -0.1; the highest 2% begin near 2. The list shows a part of the results.
# Target: Metabotropic glutamate receptor 8 (Rattus norvegicus) (UniProt P70579)
# Assay: mGluR8 Gi/Go-coupled signaling modulation – cell-based, rat, thallium flux, HTS, primary screen (AID 488969)
# Details: HEK293 rat mGluR8, GIRK (G protein-gated inwardly rectifying potassium channel) thallium flux, FluoZin2; at 10 µM; stronger effect = higher value; submaximal glutamate (EC20) added with thallium
# Chain of UniProt P70579 (P70579 whole entry, looked up): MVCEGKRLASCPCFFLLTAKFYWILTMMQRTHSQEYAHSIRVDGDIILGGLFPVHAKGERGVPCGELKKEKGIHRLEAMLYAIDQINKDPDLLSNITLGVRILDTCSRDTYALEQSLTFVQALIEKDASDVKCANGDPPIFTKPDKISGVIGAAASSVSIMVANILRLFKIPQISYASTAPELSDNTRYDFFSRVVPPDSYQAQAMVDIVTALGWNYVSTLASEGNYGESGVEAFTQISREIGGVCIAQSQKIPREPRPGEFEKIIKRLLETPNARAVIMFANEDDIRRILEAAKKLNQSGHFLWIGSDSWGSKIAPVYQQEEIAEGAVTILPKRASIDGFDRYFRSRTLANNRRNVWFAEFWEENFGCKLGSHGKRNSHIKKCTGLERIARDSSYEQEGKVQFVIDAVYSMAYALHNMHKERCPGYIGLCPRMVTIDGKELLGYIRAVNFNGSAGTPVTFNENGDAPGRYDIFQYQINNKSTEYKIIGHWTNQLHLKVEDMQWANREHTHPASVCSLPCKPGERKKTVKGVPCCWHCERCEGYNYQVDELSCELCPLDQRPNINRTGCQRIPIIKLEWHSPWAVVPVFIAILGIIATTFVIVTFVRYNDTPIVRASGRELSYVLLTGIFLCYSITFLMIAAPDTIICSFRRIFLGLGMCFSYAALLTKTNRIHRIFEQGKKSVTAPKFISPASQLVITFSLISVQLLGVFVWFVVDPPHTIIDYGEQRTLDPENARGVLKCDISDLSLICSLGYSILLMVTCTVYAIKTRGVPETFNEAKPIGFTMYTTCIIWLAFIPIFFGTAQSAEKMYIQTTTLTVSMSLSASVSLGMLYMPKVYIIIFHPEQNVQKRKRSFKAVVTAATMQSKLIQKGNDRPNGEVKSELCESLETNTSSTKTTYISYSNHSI
row,SMILES,z-score
1,CC(=O)Nc1sc(C)c(C)c1C(=O)OCC(=O)Nc1cc(S(=O)(=O)N2CCCCC2)ccc1Cl,0.0182
2,N#Cc1ccc(-c2ccc(OCC(O)Cn3nnc4ccccc43)cc2)cc1 (stereo unspecified),-0.106
3,CCOC(=O)C1=C(N)Oc2c(oc(CO)cc2=O)C1c1ccc(F)cc1 (stereo unspecified),-0.156
4,CC(C)c1ccc(-c2nnn(CCC(=O)O)n2)cc1,-0.245
5,COC(=O)C1=C(NC(=O)CCCCl)CCS1,-0.0894
6,CN(c1ccccc1)c1ccc(/C=C(\CCC(=O)O)c2nc3ccccc3s2)cc1[N+](=O)[O-],0.629
7,COc1ccc(CCNS(=O)(=O)c2cccc(F)c2)cc1OC,-0.129
8,CC(=O)c1sc(NC(=O)C2COc3ccccc3O2)nc1C (stereo unspecified),0.441
9,Cc1onc(-c2ccccc2)c1C(=O)Nc1nc(-c2ccc(F)c(F)c2)cs1,-0.108
10,O=C(O)CCCCNS(=O)(=O)c1ccc(Cl)c(C(F)(F)F)c1,-0.602
11,CCCC(=O)Oc1ccc2c(C)cc(=O)oc2c1,-0.598
12,O=C(O)CCN1C(=O)CC(N2C(=O)/C(=C/c3ccc(Cl)cc3)SC2=S)C1=O (stereo unspecified),-0.273
13,COC(=O)c1ccc(NC(=O)NC2CCCCC2)cc1,-0.281
14,Cc1cccc(N2C(=O)CS/C2=N\NC(=O)c2ccc(Br)cc2)c1C,1.16
15,FC(F)(F)c1cnc(Nc2ccc(N3CCOCC3)cc2)c(Cl)c1,0.0606
16,COc1ccccc1Nc1nc(N)nc(CN2CCN(c3ccccc3F)CC2)n1,-0.07
17,Cc1nnn(-c2nonc2N)c1C(=O)N/N=C/c1ccccc1O,-0.0475
18,CCn1c(SCC(=O)c2ccc(OC)cc2)nnc1C1CC1,0.468
19,CC(C)=CCCC(C)N(C=O)C(C)CCC=C(C)C (stereo unspecified),-0.778

row,SMILES,z-score
1,Cn1c(=O)c2ccccc2n(Cc2ccccc2F)c1=O,0.406
2,COc1ccc2c(C(=O)CN(C)C3CCCCC3)c[nH]c2c1,1.52
3,COc1c(OC(C)=O)ccc(/C=C/c2ccc3cccc(OC)c3n2)c1[N+](=O)[O-],-0.154
4,CCOc1ccccc1C(=O)Nc1nnc(COC)s1,-0.051
5,CC(C)CC(C)NNC(=O)c1cc2ccccc2[nH]1 (stereo unspecified),0.121
6,Cc1ccc(C(=O)O/N=C/c2c(Cl)n(C)c3ccccc23)cc1,-0.0365
7,COc1ccc(/C=N/NC(=O)Cn2cnc3ccccc3c2=O)cc1,0.00606
8,O=C(CN1C(=O)C2C3C=CC(C3)C2C1=O)NCCc1ccccc1 (stereo unspecified),-0.0512
9,Cc1cccc(NC(=S)N/N=C/c2ccc([N+](=O)[O-])s2)c1,1.29
10,CCC(CC)c1nnc(NC(=O)CCCN2C(=O)c3ccccc3C2=O)s1,-0.686
11,COc1ccc(N(C(=O)Cn2nnc3ccccc32)C2(C(=O)NC3CCCC3)CCCCC2)cc1,-0.442
12,COc1cc2c(C)nc3onc(-c4ccccc4)c3c2cc1OC,-0.241
13,COCCN(CCOC)C(=O)c1cc2sc3ccccc3c2s1,-1.09
14,COn1c(SCC(=O)N(C)C)nc2ccccc2c1=O,0.112
15,COc1ccccc1S(=O)Cc1ccc(C(=O)NC2CCCC2)o1 (stereo unspecified),-0.167
16,CCOC(=O)CSc1cc(=O)n(CC)c2ccccc12,-0.628
17,CCN(CC)c1nc2c(s1)C(=O)CC(C)(C)C2,-0.108
18,CCNc1nc(SC(C)C(=O)Nc2ccccc2)nc(N2CCOCC2)n1 (stereo unspecified),-0.307
19,COc1cccc(-c2nc(NC(C)(C)C)c3ccccc3n2)c1O,0.524

row,SMILES,z-score
1,COc1cccc(CN(CC2CCCO2)S(=O)(=O)c2ccc(S(=O)(=O)NCC3CCCO3)cc2)c1OC (stereo unspecified),0.132
2,O=C(CCCc1c[nH]c2ccccc12)NCc1ccc2c(c1)OCO2,-0.0876
3,Cc1ccc(OCc2nc(C#N)c(NCc3ccc4c(c3)OCO4)o2)cc1,-0.283
4,S=C(NCc1ccc(Cl)c(Cl)c1)Nc1ccc2c(c1)OCO2,0.244
5,Cc1ccc2oc3c(c(=O)c2c1)C(c1ccc(F)cc1)N(CCCN1CCOCC1)C3=O (stereo unspecified),-0.538
6,CC1Cc2ccccc2N1C(=O)CSc1nc2c(c(=O)n(C)c(=O)n2C)n1Cc1ccc(F)cc1 (stereo unspecified),-0.211
7,COCc1[nH]nc2c1C1(C(=O)Nc3ccc(F)cc31)C(C#N)=C(N)O2 (stereo unspecified),-0.0587
8,CSc1nc2ccc(Nc3nc(N4CCOCC4)nc(N4CCOCC4)n3)cc2s1,-0.466
9,Cc1ccc(NC(=S)N/N=C2\CC(C)(C)Oc3ccc(O)cc32)cc1,1.09
10,COc1cc(-c2nc(S(=O)(=O)c3ccc(Cl)cc3)c(N3CCOCC3)o2)cc(OC)c1OC,-0.427
11,Cc1c(C(C)NC(=O)Nc2ccc(F)cc2F)cnn1C (stereo unspecified),0.581
12,CCCc1ccccc1OCCNC(C)=O,-0.472
13,O=C(NCCc1c[nH]c2ccccc12)C(F)(F)C(F)F,-0.408
14,CC(=O)NC12CC3CC(CC(CC(=O)O)(C3)C1)C2,0.634
15,CN(C)C(=O)c1cc2cc([N+](=O)[O-])ccc2s1,0.0854
16,CC(NC(=O)C(C)N1C(=O)C2C3CC(C(Br)C3Br)C2C1=O)c1ccccc1 (stereo unspecified),-0.169
17,CC1CCN(S(=O)(=O)c2cccc(C(=O)Oc3ccc([N+](=O)[O-])cc3)c2)CC1,-0.832
18,CC(O)c1cccc(NC(=O)CCC(=O)O)c1 (stereo unspecified),0.158
